PubChem BioAssay AID434955 (Southern Research Specialized Biocontainment Screening …, 2010)
The list shows a part of the results. The main result of the screen is listed elsewhere. These columns were measured beside it and carry no call. Most of these compounds were active or inconclusive in the main read-out, so they are no random draw.

Experiment: beta-lactam sensitization of Mtb H37Rv, H37Rv (AID 434955);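 note: growth measured after seven days incubation then overnight dye step; 0% = bacteria only wells and 100% = bacteria with antibiotic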
Details: M. tuberculosis H37Rv growth with meropenem, percent inhibition; measured here: primary screen without meropenem; at 25 µM

Compound | inhibition [%]
CC(=O)Nc1ccc(S(=O)(=O)N2CCN(Cc3csc(C)n3)CC2)cc1 | -13
C[C@]12CCC3[C@@H](CC[C@H]4C[C@@H](O)CC[C@]34C)C1CCC2=O (some centres not stated) | 4.67
COc1ccc(-c2cc(=Nc3ccc(C)cc3)c3ccccc3o2)cc1 | 18.3
COc1ccc(OC)c(CCNC(=O)CN2C(=O)CC(C)(C)S(=O)(=O)c3ccccc32)c1 | -6.35
Cc1cc(C(=O)NCC(=O)Nc2c(C)cccc2C)c(C)o1 | -0.88
COc1cccc(N(CC(=O)NC2CCCC2)C(=O)Cn2nnc(-c3ccc(C)cc3)n2)c1 | -0.34
CCn1cc(CN2CCC(C(=O)Nc3ccc(Oc4cccnc4)cc3)CC2)cn1 | 3.57
CCCS(=O)(=O)c1c(S(=O)(=O)CCC)c2cc(CC)ccn2c1C(=O)OC | -5.76
Nc1c(C(=O)NC23CC4CC(CC(C4)C2)C3)sc2nc3c(c(C(F)(F)F)c12)CCC3 | 2.07
COc1ccccc1NC(=O)COc1ccc(CO)cc1Cl | 29.4
COc1cccc(N(CC(=O)NC2CCCCCC2)S(=O)(=O)c2ccccc2)c1 | 1.36
COC(=O)c1ccc2c(=O)n(CCCCCC(=O)NCc3ccccn3)c(=O)[nH]c2c1 | -6.7
CCOc1ccc(C2CC(c3ccccc3C)n3nc(N)nc3N2)cc1 (configuration not stated) | -1.3
CN1N=C(C(=O)N2CCCC(Nc3ccc(F)c(F)c3)C2)CCC1=O (configuration not stated) | 7.4
C/C(=C\c1ccccc1F)C1Nc2cccc3cccc(c23)N1 | 56.4
Cn1c(=S)[nH]c2sc3c(c2c1=O)CCC(C(C)(C)C)C3 (configuration not stated) | 36.4
O=C(c1nc2ccc(Cl)cn2c1CN1CCC(CO)CC1)N1CCc2ccccc2C1 | -6.53
Cc1ccc(NC(=O)NC2CCCCC2)cc1Cl | 98.8
Cc1cc2ccccn2c1C(=O)c1ccc([N+](=O)[O-])o1 | 26.2
CCCCN(CCCC)C(=S)N/N=C/c1c(C)[nH]n(-c2ccccc2)c1=O | 25.9
Cc1ccc(NC(=O)CCN2C(=O)C3C4CCC(C4)C3C2=O)cc1[N+](=O)[O-] (configuration not stated) | 74.6
CCN(CC)S(=O)(=O)c1ccc(Cl)c(NC(=O)COc2ccc3c(C)cc(=O)oc3c2)c1 | 8.94

Compound | inhibition [%]
COc1ccc(C2=Nn3c(nnc3-c3ccncc3)SC2)cc1OC | 1.16
O=C(Nc1nnc(-c2ccc3c(c2)OCCO3)o1)C1CCCCC1 | 39.1
CCN(CC(=O)Nc1ccc2c(c1)OCCO2)C(=O)c1ccc([N+](=O)[O-])s1 | 26.3
Cc1cc(Br)ccc1NC(=O)c1ccccc1-c1ccccc1 | 32.9
COc1ccc(NC(=O)CN2CCN(C3c4ccccc4-c4ccccc43)CC2)c(OC)c1 | 35.8
CCCn1c(-c2ccc(OC)cc2)nc2ccccc21 | -11.4
CN(C(=O)CN1C(=O)c2ccccc2S1(=O)=O)c1ccccc1C(=O)O | -0.55
COC(=O)c1sccc1S(=O)(=O)NC(C)c1cnn(-c2ccc(OC)cc2)c1C (configuration not stated) | -2.3
CCCCCCc1nc(C(N)=O)c2[nH]c(=O)n(-c3ccc(OC)cc3OC)c2n1 | 7.81
N#CC1=C(N)Oc2cc(N)ccc2C1c1ccc(F)cc1 (configuration not stated) | 2.71
Cc1nc(CNS(=O)(=O)c2ccc(Br)cc2)cs1 | 9.87
O=C(Nc1ccnn1C1CCN(Cc2cccc(O)c2)CC1)C1CCCC1 | 6.74
CCCN1CCc2c(sc(NC(=O)Cc3ccc(F)cc3)c2C(N)=O)C1 | 2.49
COc1ccc(C(C)C)cc1S(=O)(=O)n1cnc(C)c1 | -0.76
COc1ccccc1NC(=O)Nc1nn(C)c2cccc(OC)c12 | 28
Cc1ccc(/C=N/n2c(C3CCCCC3)n[nH]c2=S)cc1 | 6.44
CCOc1ccccc1OCC(=O)N/N=C(\C)Cc1ccc(OC)cc1 | -7.86
CCc1ccc2nc(N(CCN(C)C)C(=O)c3ccc4ccccc4c3)sc2c1 | 7.05
O=C1C(Cl)=C(N2CCCCC2)C(=O)N1c1ccccc1 | 45.1
O=C(CCN1C(=O)/C(=C\c2ccccc2)SC1=S)NCCCN1CCOCC1 | 0.37
CCc1cc(N2CCOCC2)cc2c1[nH]c1ccccc12 | -2.95
O=S(=O)(c1cccc2nonc12)N1CCCCC1 | 1.49

Compound | inhibition [%]
Cc1cc(C(=O)NC2CCCc3c2cnn3-c2cccc(C)c2C)no1 (configuration not stated) | 1.65
O=C(Nc1cccc(F)c1)Nc1ccnn1C1CCN(C(=O)c2cscn2)CC1 | 2.71
CCCCNC(=O)c1cc([N+](=O)[O-])[nH]n1 | 4.31
CCOC(=O)c1sc(=S)n(CC)c1NC(=O)CC | -6.8
COc1cccc(Oc2nc(-c3ccccc3O)nc3ccccc23)c1 | 15.4
CCCCN1c2cc(C)c(O)cc2C(C(=O)OCC)C1C (configuration not stated) | 5.87
N#Cc1c(NC(=O)CSc2ncn[nH]2)sc2c1CCCCC2 | -3.01
CSc1nc(SCC(=O)NCc2ccco2)c2c3c(sc2n1)COC(C)(C)C3 | -6.62
CCOC(=O)c1cnn(-c2ncnc3sc4c(c23)CCC4)c1N | 54.4
COc1cccc(NC(=O)Nc2cc(C)ccc2F)c1 | 1.98
Cc1c(NC(=S)NC(=O)c2cc3ccccc3o2)cccc1C(=O)O | -1.18
COc1nc(N(C#N)CC(N)=O)nc(N2CCCC2)n1 | 3.73
COc1ccc(-c2cc(C(F)F)nc(-n3nc(C)cc3C)n2)cc1 | 46.9
CCOC(=O)C1CCCN(c2ccc(NC(=O)c3snc4c(=O)[nH]cnc34)cc2)C1 (configuration not stated) | 42.9
COc1ccccc1C(=O)Nc1nnc(SCC(=O)NCc2ccco2)s1 | 2.46
CC(C)OCc1c(C(=O)Nc2nccs2)oc2ccccc12 | 46.3
CCCC(=O)N1CCN(c2ccc(NC(=S)NC(=O)CC)cc2)CC1 | 35.5
CCOc1ccc(S(=O)(=O)Nc2cccc(OC)c2)cc1 | -8.91
O=S(=O)(c1cccc(S(=O)(=O)N2CCOCC2)c1)N1CCCCC1 | 4.14
O=C(COc1ccc(Cl)cc1)N1CCN(S(=O)(=O)c2ccccc2)CC1 | -0.71
C#CCOc1c(Cl)cc(/C=N/NC(N)=S)cc1OCC | 34.8
Cc1nn(C)c(C(=O)N/N=C/c2cccc(Oc3ccccc3)c2)c1Br | 10.6

Compound | inhibition [%]
CC(C)(CNC(=O)CO/N=C1/C=C2CCC3C(C(O)C[C@@]4(C)C3CC[C@]4(O)C(=O)CO)[C@@]2(C)CC1)C(O)C(=O)O (some centres not stated) | 6.86
NC(=S)N/N=C/c1cccc(/C=N/NC(N)=S)c1 | 19.4
COc1ccc(OCC(=O)N/N=C(\C)CC(=O)Nc2ccc(NC(C)=O)cc2)cc1 | -2.9
OCCNCCCCOc1ccc(OCc2ccccc2)cc1 | -10.5
O=S(=O)(c1cccc2cccnc12)N1CCCCC1 | 8.7
CC(=O)Cc1nsc(NC(=O)c2ccc(-c3ccccc3Cl)o2)n1 | 0.08
COc1ccc(/C=N/NC(N)=S)cc1OC(=O)c1cccc2ccccc12 | 83
CCc1cc(=O)oc2c(CN3CCN(C)CC3)c(O)c(Cl)cc12 | -2.21
CCc1ccc(-c2cc(C(F)(F)F)n3nc(C(=O)Nc4c(C)nn(Cc5ccccc5C)c4C)cc3n2)s1 | 6.94
COC(=O)C1CCN(C(=O)c2ccc3nc(-c4cccc(OC)c4)oc3c2)CC1 | 7.04
Cc1ccc2c(c1)NC(=O)C(CC(=O)NCCN(CC(C)C)CC(C)C)O2 (configuration not stated) | -0.35
O=C(c1ccc(OC2CCN(Cc3ccccc3C(F)(F)F)CC2)cc1)N1CCCCC1 | 95.6
O=C1OC(Nc2ncccn2)c2ccccc21 (configuration not stated) | 2.35
CN(c1ccccc1)S(=O)(=O)c1ccc(NC(=O)C2CC2)cc1 | -0.86
Cc1cccc2c(C(=O)n3cccn3)cc(-c3ccccc3Cl)nc12 | 26.7
O=C(Nc1ccc(Oc2ccccc2)nc1)C1CCN(Cc2cccc(F)c2)CC1 | -0.55
Cc1nc(CN(C)C(=O)CC2C(=O)NCCN2Cc2ccc(F)cc2)cs1 (configuration not stated) | 1.89
COCCNc1oc(-c2ccco2)nc1S(=O)(=O)c1ccccc1 | 1.12
CC(C)Cc1ccc(CN2CCCC(NC(=O)CCn3cnnn3)C2)cc1 (configuration not stated) | -2.5
O=C(c1cc(Br)ccc1Cl)N1CCC2(CC1)OCCO2 | -3.36
CSc1ncccc1C(=O)Nc1cc(C)ccn1 | -4.81
C/C(=N\Nc1cc(-c2ccccc2)nc(-c2ccc(Br)cc2)n1)c1cccc(N)c1 | 99.4

Compound | inhibition [%]
CC1CN(C(=O)CCC(=O)NC2CCCCC2)c2ccccc2S1 (configuration not stated) | -7.63
CCc1ccc(/C=N/n2c(COc3ccccc3)n[nH]c2=S)cc1 | 9.78
S=C(Nc1ccccc1Cl)N1CCCC(c2ccccc2)=N1 | 19.1
CCCN1C(=O)/C(=c2\s/c(=C3\C=Cc4ccccc4N3CC)c(=O)n2-c2ccccc2)SC1=S | 1.19
COc1ccc(CN(C)C(=O)c2cc(S(=O)(=O)Nc3ccccc3F)ccc2C)c(OC)c1 | 4.27
O=C(CSc1nnc(CNC(=O)c2cccc(C(F)(F)F)c2)o1)NC1CCCCC1 | 7.24
Cc1ccc(S(=O)(=O)N2CCN(C(=O)COc3ccc(-c4nnco4)cc3)CC2)cc1 | -1.76
CC1CCCN(c2c([N+](=O)[O-])c(=O)oc3ccccc23)C1 (configuration not stated) | 2.16
CCCn1cc(S(=O)(=O)c2ccc(F)cc2)c(=O)c2cc(OCC)ccc21 | 4.19
Cc1cccc(-c2cc(C(=O)Nc3c(C)n(C)n(-c4ccccc4)c3=O)c3ccccc3n2)c1 | 2.18
C1=C(CCNc2nnnn2-c2ccccc2)CCCC1 | 1.02
O=C(Nc1ccc(F)cc1)c1oc2ccccc2c1NC(=O)C1CC1 | 5.73
CC(C)(C)c1ccc(OCc2ccc(C(=O)N/N=C3\CC4CC=CC34)cc2)cc1 (configuration not stated) | 3.28
Cc1cccc(NC(=O)C(C)SCc2nc3sc(C)c(C)c3c(=O)[nH]2)n1 (configuration not stated) | 0.16
Cc1ccc(Cn2c(C(C)Nc3nc(-c4ccc(Cl)cc4)cs3)nc3cc(C(=O)NCCCO)ccc32)cc1 (configuration not stated) | -0.2
CCOC(=O)c1[nH]c2ccccc2c1NC(=O)c1nonc1C | -4.16
Cc1ccc(C(=O)COC(=O)c2cccc([N+](=O)[O-])c2)s1 | 61
CCNS(=O)(=O)c1ccc(Br)c(OC)c1 | -6.46
COc1ccccc1NC(=S)NC(=O)CCc1ccccc1 | 45.8
